Measured values: PubChem BioAssay (Tox21)
Several values for one entry are separate records, joined by “and”; a condition that tells them apart may be missing. Equal values may be shown once. Inconclusive results, whose numbers are uncertain, are shown with a selection of clear calls. Where the call is inconclusive, the potency comes from a doubtful curve fit. Activity calls are given as the source filed them. Calls come from the whole dose curve; as a rule, active = well fitted curve in the direction sought with a large enough effect in the repeat runs; inconclusive = weak or mixed curves; inactive = no such curve, though single readings can be large; an effect the other way counts as inactive or inconclusive.

test: A CellTox Green Cytotoxicity Assay to monitor cytotoxicity in HEK293 cells - 0 hour (AID 1224869); conditions: CellTox Green fluorescence; series mostly up to 76.8 µM; cytotoxicity: at the top concentration; note: nearly all actives have a fitted effect of over 50% in size
Procedure, shortened: (§1)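 Dead-cell fluorescence measured kinetically: asymmetric cyanine dye, HEK293, 600 cells/well, 5 h settle, 23 nL cpd/DMSO, 37 C, reads 0–40 h every 8 h.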
Potency is the fitted concentration of half-maximal effect; tags give direction and shape of the fitted curve.

Compound | Potency
O=C(Nc1ccccc1-c1ccc(Cl)cc1)c1cccnc1Cl | active: 46.3 µM
CC(C)Oc1cc(-n2nc(C(C)(C)C)oc2=O)c(Cl)cc1Cl | inconclusive: 0.682 µM [activator, partial curve]
CCCCCCCCc1ccc(O)cc1 | inconclusive: 43.9 µM [activator, partial curve]

test: qHTS RealTime-Glo MT Cell Viability Assay in HepG2 cells - 40 hour (AID 1224870); conditions: RealTime-Glo luminescence; series mostly up to 76.8 µM; activity change, negative = cytotoxic: at the top concentration; note: nearly all actives have a fitted effect of over 50% in size; for activity change, negative = cytotoxic: % is set by controls: 0 for no effect and ±100 for the full control effect
Procedure, shortened: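 HepG2 cells mixed with RealTime-Glo MT reagents (NanoLuc plus cell-permeant prosubstrate) were seeded at 600 cells/well, incubated 5 h at 37 C/5% CO2, then pinned with compounds in DMSO; nonlytic luminescence tracked viability during 40 h treatment.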

Compound | activity change, negative = cytotoxic | Potency
O=C(Nc1ccccc1-c1ccc(Cl)cc1)c1cccnc1Cl | inactive: -0.105% | –
ClC1=C(Cl)[C@]2(Cl)[C@H]3[C@H]([C@@H]4C=C[C@H]3C4)[C@@]1(Cl)C2(Cl)Cl | – | inconclusive: 54.9 µM [falling, single point]
Clc1ccc(C(Cl)(Cl)Cl)cc1Cl | – | inconclusive: 60.3 µM [falling, single point]
CN(C)c1ccc(C(=O)c2ccc(N(C)C)cc2)cc1 | – | inconclusive: 30.9 µM [falling, partial curve, poor fit]
CC(C)OC(=O)C(O)(c1ccc(Cl)cc1)c1ccc(Cl)cc1 | – | inconclusive: 54.9 µM [falling, partial curve, poor fit]
CC(C)(C)c1cc(O)ccc1O | – | inconclusive: 43.6 µM [rising, partial curve, poor fit]
CCCCCCCCc1ccc(O)cc1 | – | inconclusive: 62 µM [phenotype inactive, partial curve, poor fit]
CO/N=C(/C1=NOCCO1)c1ccccc1Oc1ncnc(Oc2ccccc2Cl)c1F | – | inconclusive: 48.9 µM [falling, partial curve, poor fit]

test: A CellTox Green Cytotoxicity Assay to monitor cytotoxicity in HEK293 cells - 40 hour (AID 1224871); conditions: CellTox Green fluorescence; series mostly up to 76.8 µM; cytotoxicity increase: at the top concentration; note: nearly all actives have a fitted effect of over 45% in size; for cytotoxicity increase: % is set by controls: 0 for no effect and ±100 for the full control effect
Procedure, shortened: as §1

Compound | Potency
O=C(Nc1ccccc1-c1ccc(Cl)cc1)c1cccnc1Cl | inconclusive: 58.3 µM [activator, single point]
Cc1cc(C(C)(C)c2cc(C)c(O)c(C)c2)cc(C)c1O | inconclusive: 33.5 µM [activator, partial curve]
O=S1OC[C@@H]2[C@H](CO1)[C@]1(Cl)C(Cl)=C(Cl)[C@@]2(Cl)C1(Cl)Cl (stereo partly specified) | inconclusive: 54.9 µM [activator, single point]
CN(C)c1ccc(N=O)cc1 | active: 11 µM and active: 19.5 µM
CC(C)OC(=O)C(O)(c1ccc(Cl)cc1)c1ccc(Cl)cc1 | active: 49 µM
OC(c1ccc(Cl)cc1)(c1ccc(Cl)cc1)C(Cl)(Cl)Cl | active: 49 µM
Oc1ccc(-c2ccccc2)cc1 | inconclusive: 61.7 µM [activator, single point]
O=C/C=C/c1ccccc1 | inactive
ClC(Cl)=C(c1ccc(Cl)cc1)c1ccc(Cl)cc1 | inconclusive: 56.3 µM [activator, single point]
CCCCOCN(C(=O)CCl)c1c(CC)cccc1CC | inconclusive: 43.6 µM [activator, partial curve]
C=CCC1=C(C)C(OC(=O)C2C(C=C(C)C)C2(C)C)CC1=O (stereo unspecified) | inconclusive: 34.7 µM [activator, partial curve]

test: qHTS RealTime-Glo MT Cell Viability Assay in HEK293 cells - 16 hour (AID 1224872); conditions: RealTime-Glo luminescence; series mostly up to 76.8 µM; activity change, negative = cytotoxicity: at the top concentration; note: nearly all actives have a fitted effect of over 50% in size; for activity change, negative = cytotoxicity: top concentration of the series differs between compounds; % is set by controls: 0 for no effect and ±100 for the full control effect
Procedure, shortened: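 HEK293 cells seeded with NanoLuc/prosubstrate reagent, rested 5 h at 37 C, then dosed and kept at 37 C up to 40 h. Nonlytic real-time luminescence from viable cells read at 0, 8, 16, 24, 32 and 40 h.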

Compound | Potency
O=C(Nc1ccccc1-c1ccc(Cl)cc1)c1cccnc1Cl | inconclusive: 51.9 µM [cytotoxic, partial curve]
CCCCCCCc1ccc(O)cc1 | active: 11 µM
Cc1cc(C(C)(C)c2cc(C)c(O)c(C)c2)cc(C)c1O | active: 23.7 µM
CC1(C)[C@H](/C=C2\CCSC2=O)[C@@H]1C(=O)OCc1coc(Cc2ccccc2)c1 | inconclusive: 38.9 µM [cytotoxic, partial curve]
O=S1OC[C@@H]2[C@H](CO1)[C@]1(Cl)C(Cl)=C(Cl)[C@@]2(Cl)C1(Cl)Cl (stereo partly specified) | inconclusive: 43.6 µM [cytotoxic, partial curve]
ClC1=C(Cl)[C@]2(Cl)[C@H]3[C@H]([C@@H]4C=C[C@H]3C4)[C@@]1(Cl)C2(Cl)Cl | active: 43.6 µM and active: 38.9 µM
CCCCNC(=O)n1c(NC(=O)OC)nc2ccccc21 | inconclusive: 27.4 µM [cytotoxic, partial curve] and inactive
CCCCOC(=O)c1ccccc1C(=O)OCc1ccccc1 | inconclusive: 27.5 µM [cytotoxic, partial curve] and inconclusive: 54.9 µM [cytotoxic, single point]
CC(C)Oc1cc(-n2nc(C(C)(C)C)oc2=O)c(Cl)cc1Cl | inconclusive: 34.2 µM [cytotoxic, partial curve] and inconclusive: 30.9 µM [cytotoxic, partial curve]
CN(C)c1ccc(C(=O)c2ccc(N(C)C)cc2)cc1 | inconclusive: 21.7 µM [cytotoxic, partial curve, poor fit] and inconclusive: 13.8 µM [cytotoxic, partial curve]
OC(c1ccc(Cl)cc1)(c1ccc(Cl)cc1)C(Cl)(Cl)Cl | inconclusive: 49 µM [cytotoxic, partial curve]
Oc1ccc(-c2ccccc2)cc1 | inconclusive: 43.1 µM [cytotoxic, partial curve] and inconclusive: 21.9 µM [cytotoxic, partial curve]
COc1ccc(C(c2ccc(OC)cc2)C(Cl)(Cl)Cl)cc1 | inconclusive: 34.5 µM [cytotoxic, partial curve]
OC(c1ccc(Cl)cc1)(c1ccc(Cl)cc1)c1cccnc1 | active: 38.9 µM
O=C/C=C/c1ccccc1 | inconclusive: 19.7 µM [rising, full curve]
CC1CCC(C(C)C)C(OC(=O)c2ccccc2N)C1 (stereo unspecified) | active: 34.2 µM
ClC(Cl)=C(c1ccc(Cl)cc1)c1ccc(Cl)cc1 | active: 56.3 µM and inconclusive: 49 µM [cytotoxic, partial curve]
CCCCCCCCCc1ccc(O)cc1 | active: 6.99 µM and active: 4.36 µM
Cc1ccc(N=C=O)cc1N=C=O | inactive
